Screen size: about 420,000 compounds; about 50,000 (12%) were called active. Inconclusive results (about 26%) are left out. Calls come from the whole dose curve; as a rule, active = well fitted inhibition curve with a large enough effect; inconclusive = small, poorly fitted or top-dose-only effect; inactive = flat fitted curve, though single readings scatter. This is a selection; strong and weak results do not stand in their true shares. More than one record can exist for a structure, and the calls need not agree.
Experiment: qHTS for Inhibitors of human tyrosyl-DNA phosphodiesterase 1 (TDP1): qHTS in cells in presence of CPT; note: nearly all actives have a fitted effect of over 55% in size
Conditions: chicken DT40 Tdp1-/-;hTDP1 cells + 20 nM CPT, ATP luminescence, 48 h; series mostly up to 46.2 µM; activity change, negative = growth inhibition: at the top concentration
Description: Human tyrosyl-DNA phosphodiesterase 1 (TDP1) is a novel repair gene, and we propose to use it as a new target for anticancer drug development. TDP1 is not an essential protein, but under treatment with topoisomerase I poison (camptothecin: CPT), TDP1 works as a critical factor for cell survival. To directly identify novel TDP1 inhibitors active in a cellular environment, we have knocked-out the Tdp1 gene in chicken DT40 cells (Tdp1-/-) and generated a complemented counterpart cells that contains a stable transfection of the human TDP1 gene (Tdp1-/-;hTDP1 cells). For the primary screen, Tdp1-/-;hTDP1 cells will be exposed to small molecules in the presence or absence of CPT, and their growth kinetics will be evaluated after 48 hours by measuring ATP activity. […] The hit compounds will then be evaluated in the presence or absence of CPT using Tdp1-/- cells. […] In tertiary assays, biochemical gel-based assays will be used to assess whether the hit compounds specifically target TDP1. To this end, we have screened this cell line against the MLSMR in two primary screens. In one screen we add CPT and in the other we screen in the absence of CPT; this AID represents the screen where CPT was present. NIH Chemical Genomics Center [NCGC] NIH Molecular Libraries Probe Centers Network [MLPCN] MLPCN Grant: MH095538 Assay Submitter (PI): Yves Pommier, NCI
DT40-hTDP1 cells with 20 nM Camptothecin (add 20 microL of 1 mM CPT stock in 1 L of cell culture medium) were dispensed at 400 cells/5microL/well in tissue culture treated 1536-well white wall/solid bottom assay plates (Greiner Bio-One North America, NC, U.S.A.) using a Multidrop Combi 8 channel dispenser (Thermo Fisher, Waltham, MA, USA). 23 nL compounds and controls were transferred using the pin tool (Kalypsys, San Diego, CA, USA) to the assay plates. The assay plates were then incubated at 37 masculineC for a minimum 48 hr. Three microL of Cell Titer Glo solution was added to the plates and incubated at RT in dark for 30 min. Luminescence was read using ViewLux (Perkin Elmer) with 1 sec exposure slow speed, high gain and 2x binning.
% is set by controls: 0 for no effect and ±100 for the full control effect; potency is the fitted concentration of half-maximal effect.

Compound	activity change, negative = growth inhibition	Potency
O=C1NCCNC1(c1c[nH]c2ccccc12)C(F)(F)F (centres undefined)	inactive: -7.51%	
CCCC[C@H]1COCCS(=O)(=O)N1Cc1cccc(Cl)c1	inactive: 0.0482%	
O=C(Nc1ccc(C2=NCCN2)cc1)c1ccc(C(=O)Nc2ccc(C3=NCCN3)cc2)c(Cl)c1		active: 7.31 µM
COc1ccc(Br)cc1S(=O)(=O)Nc1ccc(Cl)cn1	inactive: 31.9%	
CCOC(=O)[C@@H]1[C@H]2COc3cc(OC)ccc3[C@@H]2N2C(=O)N(c3ccc(C)cc3)C(=O)[C@]12C	inactive: -12.5%	
CCOC(=O)c1c(/N=C/c2cc(C)ccc2O)sc2c1CCN(C)C2	inactive: 31.6%	
COc1ccc(NS(=O)(=O)c2ccc3c(c2)[C@H]2C=CC[C@H]2[C@@H](c2ccc(C(=O)O)cc2)N3)cc1	inactive: -28.2%	
COC(=O)[C@H]1[C@@H]2C[C@H]3c4[nH]c5ccccc5c4CCN3C[C@@H]2CC[C@@H]1O	inactive: 8.87%	
COc1cccc(C(=O)Nc2cccc3c2ccc2cccn23)c1		active: 16.4 µM
NCCCNC(=O)c1ccc(/C=N/O)nc1	inactive: 33.3%	
Cc1cccc(NC(=O)CCCc2ccccc2)c1C	inactive: 35.6%	
COc1ccc2[nH]c(C)c(C(=O)CN(C)C)c2c1	inactive: 9.74%	
CCCCCCCCCCCCCCCC(=O)NCCO		inactive
C[C@H](NC(=O)C1(c2ccccc2)CCN(C(=O)OC(C)(C)C)CC1)C(=O)N[C@@H](C(=O)O)c1ccccc1	inactive: -1.59%	
Cc1nc(SCc2ccc(F)cc2)c([N+](=O)[O-])[nH]1	inactive: 33.7%	
O=C(C1CCCO1)N1CCN(C(=S)Nc2ccc(Cl)c(Cl)c2)CC1 (centres undefined)	inactive: 31.4%	
Cc1nc2cc(NCc3nc4ccccc4n3Cc3ccccc3)ccc2n1C		active: 23.1 µM
CC(C)C[C@H]1COc2cccc(N3CCC[C@@H]3CO)c2S(=O)(=O)N1	inactive: -15.9%	
O=C(Cn1ccn(-c2ccc(F)c(F)c2)c(=O)c1=O)NCCc1ccccc1	inactive: -17.9%	
N[C@H](CO)C(=O)O	inactive: -3.74%	
COC(=O)C[C@H]1c2ccccc2S(=O)(=O)N1c1cccc(OC)c1	inactive: -1.55%	
O=C1CCN(Cc2ccc(O)cc2)CCN1[C@H](CO)Cc1ccccc1	inactive: 13.7%	
NCCCCNCCCN		inactive
Cc1ccc(S(=O)(=O)N(C)C[C@@H]2OCc3cnnn3CCCC(=O)N([C@H](C)CO)C[C@@H]2C)cc1	inactive: -15.6%	
COCC(=O)Nc1ccc2c(c1)[C@@H]1C[C@H](CC(=O)OC)O[C@H](CO)[C@@H]1O2	inactive: 18.5%	

Compound	activity change, negative = growth inhibition	Potency
C[C@@H]1CN([C@H](C)CO)C(=O)CCCn2nncc2CO[C@H]1CN(C)S(=O)(=O)c1ccc(Oc2ccccc2)cc1	inactive: -20.3%	
CC(=O)O[C@H]1C[C@@]2(C)[C@@H](C[C@@H](O)[C@H]3[C@@]4(C)CC[C@@H](O)[C@@H](C)C4CC[C@@]32C)/C1=C(\CCC=C(C)C)C(=O)O (some centres undefined)	inactive: -17.1%	
CCC(Sc1nncn1C)C(=O)Nc1cc(C)on1 (centres undefined)	inactive: 30.8%	
Cc1c(C(=O)NCC2CCCO2)sc2nc(-c3ccc(F)cc3)cn12 (centres undefined)		active: 14.6 µM
Cc1ccc(C(C)C)c(OCC(=O)OCC(=O)NC2CCS(=O)(=O)C2)c1 (centres undefined)	inactive: 0.428%	
O=c1c2ccccc2c(/C=N/c2ncn[nH]2)c(O)n1Cc1ccccc1	inactive: -8.11%	
COc1ccc(NC(=O)CN2CCN(c3ccccc3C)CC2)cc1	inactive: 32.9%	
COc1cc(/C=C2/NC(=O)NC2=O)cc(Br)c1OCc1cccc(C(=O)O)c1	inactive: 35.2%	
COc1ccc(OC)c(-c2cc(C(=O)NCc3ccc(Cl)cc3)no2)c1	inactive: -23.6%	
CC1=NN(c2ccc(S(=O)(=O)O)cc2Cl)C(=O)C1	inactive: 38.2%	
COc1ccc(N2CCN(C(=O)CN(C)S(=O)(=O)c3cccs3)CC2)cc1	inactive: -10.2%	
COc1ccc(NC(=O)C2CCCN(S(=O)(=O)c3ccc4c(c3)CCCN4C(C)=O)C2)cc1 (centres undefined)	inactive: -14.3%	
COc1ccccc1C(CNC(=O)c1ccc(S(=O)(=O)NCc2ccco2)cc1)N(C)C (centres undefined)	inactive: 43.4%	
O=C(O)CCC(=O)Nc1ccc(C(=O)OCC(=O)c2ccc(Cl)cc2)cc1	inactive: 34.9%	
COc1ccc(/C=C2\SC(=O)N(CCC(=O)Nc3ccccc3)C2=O)cc1OC	inactive: -0.7%	
CCCS(=O)(=O)N1CCc2ccc(NC(=O)c3ccccc3Cl)cc2C1	inactive: 13%	
Cc1cccc(NC(=S)N=Nc2c(O)n(CN3CCOCC3)c3ccccc23)c1C		active: 5.8 µM
Cc1nn(C(C)C(=O)N2CCOCC2)c(C)c1[N+](=O)[O-] (centres undefined)	inactive: 40.8%	
CCOc1ccccc1C(=O)N1CC(=O)Nc2ccc(Cl)cc2C1c1ccccc1 (centres undefined)		active: 20.6 µM
CNC[C@@H]1Oc2cc(Br)ccc2S(=O)(=O)N([C@H](C)CO)C[C@H]1C	inactive: 2.43%	
CN(C)CC/C=C1\c2ccccc2CSc2ccccc21	inactive: 3.15%	
Cc1ccc(C)c(Nc2c([N+](=O)[O-])c(=O)oc3ccccc23)c1		active: 23.1 µM
Cc1cccc(NS(=O)(=O)c2ccc3c(c2)[C@H]2C=CC[C@H]2[C@@H](c2ccc(F)cc2)N3)c1		active: 10.3 µM
Cc1ccccc1CSCCC(=O)NCCc1ccccc1	inactive: 36.6%	
CC(C)C(NC(=O)C(NC(=O)C1OC2OC(C)(C)OC2C2OC(C)(C)OC12)C(C)C)C(=O)O (centres undefined)	inactive: 28.2%	

Compound	activity change, negative = growth inhibition	Potency
Fc1ccccc1Cc1noc(CN2CCN(Cc3ccc4c(c3)OCO4)CC2)n1	inactive: 11.3%	
Cc1nnc(NS(=O)(=O)c2ccc(N=Nc3ccc(N)nc3N)cc2)s1	inactive: 20.1%	
Cn1[nH]c(=O)c(Cl)c(Cl)c1=O	inactive: -2.74%	
Cc1cccc(C)c1NC(=O)C1CCCCN1C (centres undefined)	inactive: -0.835%	
O=C(Nc1ccncc1)Nc1ccc(Cl)cc1Cl		active: 18.4 µM
COc1cc(C(=S)N2CCCC2)ccc1OCC(N)=O	inactive: 4.54%	
COc1ccc(NC(=O)CCN2CCN(c3ccc(F)cc3)CC2)cc1		active: 23.1 µM
COc1ccc(NC(=O)CNC(=O)c2cccs2)cc1Cl	inactive: 41.8%	
CCOC(=O)c1c(N2C(=O)Nc3ccccc3N2O)n[nH]c1-c1cccc(Cl)c1	inactive: 46.5%	
Cn1c(=O)[nH]c(=O)c2c1nc(N)n2Cc1ccccc1	inactive: 46%	
C[C@H](CO)N1C[C@H](C)[C@@H](CN(C)S(=O)(=O)c2ccc3c(c2)OCCCO3)OCc2cnnn2CCCC1=O	inactive: 0.607%	
O=C(c1ccc(COc2ccccc2Br)cc1)N1CCCCC1		active: 14.6 µM
Nc1ccc(C=C2C=Cc3ccccc32)cc1	inactive: 4.1%	
COCC1=C(C(=O)OC(C)OC(=O)OC(C)C)N2C(=O)[C@@H](NC(=O)/C(=N\OC)c3csc(N)n3)[C@H]2SC1 (some centres undefined)		inactive
O=C(C1=C[C@@H](c2ccc3c(c2)OCO3)C[C@@H](OCCCCO)O1)N1CCOCC1	inactive: -5.02%	
C#Cc1ccc([C@@H]2C=C(C(=O)NC3CC3)O[C@H](OCC)[C@H]2CCCO)cc1	inactive: -18.8%	
O=C1C(Cc2ccccc2)Nc2ncnc(N3CCCCC3)c2N1Cc1ccc(Br)cc1 (centres undefined)	inactive: -27.1%	
Cc1ccc(-n2ncc3c(Nc4cccc(C(=O)O)c4)ncnc32)cc1	inactive: -30%	
COC(=O)C[C@H]1c2cc(F)ccc2S(=O)(=O)N1Cc1ccccc1OC	inactive: -4.18%	
CCCCCn1c(=O)[nH]c2cc(C(=O)N3CCN(c4cccc(C(F)(F)F)c4)CC3)ccc2c1=O		active: 10.3 µM
Nc1cccc2c1C(=O)N(C(=O)c1ccco1)C2=O	inactive: 45.9%	
CSc1nnc2c3ccccc3n(CCc3ccccc3)c2n1		active: 7.31 µM
CC1C(O)CC2C(C(=O)O)=CO[C@@H](O[C@H]3OC(CO)C(O)C(O)C3O)C21 (some centres undefined)	inactive: -12.3%	
CC(C)CNC(=S)N1CCC(c2nc(-c3ccc(F)cc3)no2)CC1		active: 20.6 µM
CC(=O)C[C@H](O)CC(=O)[C@H]1OC(=O)CCCCCCc2ccccc21	inactive: -1.41%	

Compound	activity change, negative = growth inhibition	Potency
COC(=O)C1=C[C@@H](C(=O)OC)[C@@H]2C3=C(C(=O)[C@@]2(C)NC(=O)c2ccccc2)[C@H](c2ccccc2)n2c(=O)n(-c4ccccc4)c(=O)n2[C@@H]3C1	inactive: 66.1%	
CN(C)CCNC(=O)Cn1c(=O)c2cccn2c2ccc(F)cc21	inactive: -29.7%	
Cc1ccc(C)c(C(=O)CCC(=O)N2CCN(c3ncccn3)CC2)c1	inactive: 12.9%	
COc1ccc2ccc(=O)oc2c1	inactive: -5%	
O=C(NCc1ccccc1)C(=O)Nc1nc(C23CC4CC(CC(C4)C2)C3)cs1		active: 23.1 µM
C(=Cc1nc2ccccc2o1)c1ccc2c(c1)OCO2	inactive: -12.2%	
CCN(Cc1ccccc1)CC(O)COc1ccccc1 (centres undefined)	inactive: 35.8%	
CC(C)C[C@@H](CO)N1CCN(Cc2cccnc2)CCC1=O	inactive: 0.925%	
COC(=O)CC1COc2ccccc2N1S(=O)(=O)c1ccc(OC)cc1 (centres undefined)		active: 3.66 µM
COc1ccc(Cn2ccnc2CO)cc1[N+](=O)[O-]	inactive: 33.4%	
C[C@@H]1CN([C@@H](C)CO)C(=O)CCCn2nncc2CO[C@H]1CN(C)S(=O)(=O)c1ccc(Oc2ccccc2)cc1	inactive: -18.7%	
CCOC(=O)CNC(=O)c1cccnc1	inactive: 1.87%	
Cc1ccccc1-c1noc(C(C)NC(=O)c2ccco2)n1 (centres undefined)	inactive: -22.3%	
Cc1cccc(Oc2nccc(C(F)(F)F)c2C(=O)Nc2ccc(F)cc2F)c1	inactive: 13.1%	
CCN(CC)C(=O)CSc1nc2c(sc(=S)n2-c2ccccc2)c(=O)n1Cc1ccco1		active: 23.1 µM
COc1ccc(-c2cc(=O)c3ccc(O)cc3o2)cc1	inactive: 2.09%	
N[C@H](Cc1ccc(Cl)cc1)C(=O)O	inactive: 3.3%	
O=C1C2CCCCC2C(=O)N1c1nccs1 (centres undefined)	inactive: 36.6%	
CC(=O)c1ccc(S(=O)(=O)N2CCN(CC#N)CC2)cc1	inactive: -2%	
O=C(C1=C[C@@H](C2CCCCC2)C[C@@H](OCc2ccc(CO)cc2)O1)N1CCOCC1	inactive: -19.8%	
Cc1cc(C)nc(-n2nc(C)c3c2N(Cc2ccccc2)C(=O)CC3c2ccc(Cl)cc2)n1 (centres undefined)		active: 16.4 µM
C[C@@H]1CN([C@@H](C)CO)C(=O)CCCn2nncc2CO[C@H]1CN(C)S(=O)(=O)c1ccccc1	inactive: -5.54%	
COc1ccc(NC(=O)CN(C)S(=O)(=O)c2ccc3c(c2)CCCN3C(C)=O)cc1	inactive: -2.24%	
CC[C@@H]1C/C=C\Cc2ccccc2[C@@H](C(=O)C[C@@H](O)CC(C)=O)OC1=O	inactive: 8.43%	
